# Source: patent US20090018029A1 (AMBRX, published 2009)
# T1: human growth hormone receptor on IM-9 cells (human, UniProt P10912 19-638)
# T1 sequence (looked up): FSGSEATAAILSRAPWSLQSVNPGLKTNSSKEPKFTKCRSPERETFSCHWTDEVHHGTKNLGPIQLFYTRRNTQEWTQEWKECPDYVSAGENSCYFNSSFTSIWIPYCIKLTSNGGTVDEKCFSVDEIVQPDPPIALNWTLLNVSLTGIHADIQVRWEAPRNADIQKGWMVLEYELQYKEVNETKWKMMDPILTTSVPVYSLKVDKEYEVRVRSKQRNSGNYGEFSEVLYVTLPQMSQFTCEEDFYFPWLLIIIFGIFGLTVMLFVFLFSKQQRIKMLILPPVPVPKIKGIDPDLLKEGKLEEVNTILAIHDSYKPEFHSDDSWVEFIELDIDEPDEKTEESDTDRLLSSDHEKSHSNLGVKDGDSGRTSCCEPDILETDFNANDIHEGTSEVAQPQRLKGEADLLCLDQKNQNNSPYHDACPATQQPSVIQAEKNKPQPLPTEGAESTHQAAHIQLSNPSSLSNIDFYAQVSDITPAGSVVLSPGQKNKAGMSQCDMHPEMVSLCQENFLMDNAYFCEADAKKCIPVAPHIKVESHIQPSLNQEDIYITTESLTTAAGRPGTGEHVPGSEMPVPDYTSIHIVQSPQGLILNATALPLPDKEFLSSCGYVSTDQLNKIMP
# B1: hGH G120R (ligand)
# chain: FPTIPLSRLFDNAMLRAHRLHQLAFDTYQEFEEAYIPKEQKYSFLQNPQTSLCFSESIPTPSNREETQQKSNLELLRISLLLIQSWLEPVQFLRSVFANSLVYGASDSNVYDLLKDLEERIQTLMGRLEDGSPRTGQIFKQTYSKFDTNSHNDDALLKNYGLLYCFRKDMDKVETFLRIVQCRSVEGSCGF
# Molecular target: T1, human growth hormone receptor on IM-9 …
# Experiment: cell-based or functional assay
binder,measurement,value
B1,"EC50 of STAT5 phosphorylation in IM-9 cells (phospho-STAT5 MFI, flow cytometry)",> 200 µM
